We go through one molecule from patent US20250277200A1 (VERTEX PHARMACEUTICALS, published 2025).

Assay [1] addresses T1, C5a (Homo sapiens (Human), UniProt P01031 678-751).
T1 sequence: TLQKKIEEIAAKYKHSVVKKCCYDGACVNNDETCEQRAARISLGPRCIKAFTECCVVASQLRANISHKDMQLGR
The assay can be described thus: cell-based or functional assay.

Assay [2] deals with C3a (Homo sapiens (Human), UniProt P01024 672-748). Briefly: cell-based or functional assay.
UniProt P01024, sequence (P01024 672-748 limits assumed): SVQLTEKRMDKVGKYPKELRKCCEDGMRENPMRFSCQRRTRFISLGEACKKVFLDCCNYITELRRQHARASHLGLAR

B1: CPN1-HSA (enzyme)
chain: VTFRHHRYDDLVRTLYKVQNECPGITRVYSIGRSVEGRHLYVLEFSDHPGIHEPLEPEVKYVGNMHGNEALGRELMLQLSEFLCEEFRNRNQRIVQLIQDTRIHILPSMNPDGYEVAAAQGPNKPGYLVGRNNANGVDLNRNFPDLNTYIYYNEKYGGPNHHLPLPDNWKSQVEPETRAVIRWMHSFNFVLSANLHGGAVVANYPYDKSFEHRVRGVRRTASTPTPDDKLFQKLAKVYSYAHGWMFQGWNCGDYFPDGITNGASWYSLSKGMQDFNYLHTNCFEITLELSCDKFPPEEELQREWLGNREALIQFLEQVHQGIKGMVLDENYNNLANAVISVSGINHDVTSGDHGDYFRLLLPGIYTVSATAPGYDPETVTVTVGPAEPTLVNFHLKRSGSSGGSSGGSSG[about 600 residues cut from this listing]
With B1, the “EC50 (Arg LC-MS/MS, purified enzyme)” value came to 35.3 nM in assay [1] and 4.42 nM in assay [2].
